The list shows a part of the results.
system: T1, C. trachomatis L2/434/Bu expressing GFP (CTL2-GFP); set-up: species or system HeLa; C. trachomatis total inclusion area by high-content imaging, normalised to DMSO; settings: total inclusion area; 28.5 h, 10 µM; inhibitor
T1 construct: L2/434/Bu GFP intracellular growth in HeLa cells
Method in brief: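 Imaging read-out: GFP inclusions and Hoechst nuclei captured by high-content imaging after fixation. Inclusion area/number = chlamydial growth; nuclei count = host cell viability. MIC calculated per earlier method.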

Compound	% of control remaining
Cc1c(NC(=S)NC(=O)Cc2ccccc2)cccc1-c1nc2ncccc2o1 [CBK264345]	66.4189
O=C1Nc2ccc(Br)cc2C(=O)N2CCN(C(=O)c3ccccc3)C[C@H]12 [CBK289589]	80.4464
Cc1noc(C)c1C(=O)N1CCN(Cc2ccco2)C[C@@H]1C(C)C [CBK284248]	99.3323
CCOc1ccc(S(=O)(=O)N2CCCN(Cc3ccc(C#N)cc3)CC2)c2cccnc12 [CBK062759]	56.7108
CCN1CCN(C(=O)c2ccc(N(C)C)cc2)CC1 [CBK200252]	115.561
O=C(NC1CCN(CC(F)(F)F)C1=O)c1ccnc(C2CC2)n1 (centres unmarked) [CBK306268]	66.0209
Cc1ccc(Cn2nc(NC(=O)c3ccccc3)c3ccccc32)cc1 [CBK048213]	91.9257
CCc1nccn1CCC(=O)NC(c1ccc(C)cc1)c1cccnc1 (centres unmarked) [CBK282032]	54.9393
O=C(COc1cc(C(=O)O)nc2ccccc12)NCc1ccc(Cl)cc1 [CBK287247]	143.335
CN(C)S(=O)(=O)c1ccc(C(=O)C2=C(O)C(=O)N(CCN3CCOCC3)C2c2ccco2)cc1 (centres unmarked) [CBK264521]	118.613
Cc1nn2c(COc3ccc(NC(=O)C4CCCCC4)cc3)nnc2c2ccccc12 [CBK268528]	101.932
Cc1cc(NC(=O)CN2CCC(CNc3ncccc3C#N)C2)on1 (centres unmarked) [CBK306127]	85.0905
NC(=O)CN1CCN(c2nccnc2OCc2ccc(Cl)c(Cl)c2)CC1 [CBK083079T]	56.9709
Cc1csc(NC(=O)CN2CCC(c3ccc(F)cc3)CC2)n1 [CBK283567]	84.7374
Cc1ccc(CNCCn2nnc(-c3ccc(CN4CCC(C)CC4)cc3)n2)cc1 [CBK154882T]	91.1011
CC(C)(C)c1ccc(OCC(=O)Nn2cnnc2)cc1 [CBK027576]	111.865
Cc1ccccc1C(=O)NCC(=O)Nc1cc2ccccc2c(Br)n1 [CBK063298]	100.931
CCS(=O)(=O)N1C[C@H]2CC[C@](O)(c3ccc(C)cc3)[C@H]2C1 [CBK285296]	85.713
c1ccc(-c2nccnc2OCCc2cccs2)cc1 [CBK106673]	112.261
COCCCOc1cc(NC(C)C)ncn1 [CBK115885]	74.8504
CNc1cc(N2CCN(S(=O)(=O)c3ccc(C)cc3)CC2)ccc1[N+](=O)[O-] [CBK266005]	81.2843
CCCc1c(C(=O)NC2CC2)cnn1-c1ccc(Cl)cc1 [CBK006334]	123.378
O=C(O)C1CCN(Cc2cnnn2-c2ccccc2F)CC1 [CBK287197]	96.489
COc1ccccc1CN(CCCn1ccnc1)Cc1ccoc1 [CBK283123]	98.6491
Cc1cccc(C(C)CNC(=O)N2CCC(Cc3cnn(C)c3)C2)c1 (centres unmarked) [CBK305301]	79.8647
CCn1cc(-c2cncn2CCCn2nc(C)cc2C)cn1 [CBK281770]	88.2342
CCC(C)NC1=NC(=O)C(CC(=O)N(C)c2ccccc2)S1 (centres unmarked) [CBK059110T]	90.1648

Compound	% of control remaining
CCN(CC)C(=O)c1[nH]c2ccccc2c1NS(=O)(=O)c1c(C)noc1C [CBK050117]	102.028
Cc1cc(C)n(-c2nc(NC(C)(C)C)nc(N3CCOCC3)n2)n1 [CBK269810]	92.0018
COc1ccc2[nH]c([C@H]3CCN(S(C)(=O)=O)C3)nc2c1 [CBK289377]	114.737
CC(C)(C)c1cc(NC(=O)CN2CCN(c3cccc(Cl)c3)CC2)on1 [CBK304525]	48.6953
O=C(N[C@H]1C[C@H]2C(=O)Nc3ccccc3C(=O)N2C1)c1cccnc1 [CBK289356]	82.6105
COc1ccc(CSCC(N)C(=O)O)cc1Br (centres unmarked) [CBK264026]	98.1737
CC(C)c1nc(NCc2nnc3n2CCC3)nc(N(C)C)n1 [CBK305117]	29.7657
CCCOc1ccc(S(=O)(=O)NCc2ccncc2)c2ccccc12 [CBK268780]	74.6326
O=C(NCCn1nc2c(cc1=O)CCCCC2)c1ccc(F)cc1 [CBK283279]	102.735
CCCOc1ccc(C(CC(=O)O)NS(=O)(=O)c2ccc(F)cc2)cc1 (centres unmarked) [CBK287139]	108.603
Cn1cc(CNC(=O)Nc2cc(C(=O)N3CCOCC3)ccc2Cl)cn1 [CBK307080]	69.1389
Cc1cc(COc2nccnc2N2CCN(CCCC#N)CC2)no1 [CBK084198]	87.488
COc1ccccc1NC(=S)NCCc1ccc(S(N)(=O)=O)cc1 [CBK266201]	108.215
CC(C)n1nccc1NC(=O)CCn1ccnc1-c1ccccc1 [CBK281536]	121.052
O=C(NCc1cccnc1)c1cc(S(=O)(=O)N2CCCC2)c(Cl)cc1Cl [CBK264455]	74.6409
O=C(O)c1ccc(CSc2nc3ccccc3[nH]2)cc1 [CBK286892]	64.1159
CCSc1nnc(-c2cccnc2)n1Cc1ccccc1 [CBK076664]	108.228
Cn1cc(C2CCCCCN2S(=O)(=O)c2ccc(F)cc2)cn1 (centres unmarked) [CBK284739]	85.4006
CC(C)NC(=O)/C(=C/c1c[nH]c2ncccc12)c1ccccc1 [CBK115357]	97.1167
Cc1nc(NS(=O)(=O)c2ccc(Oc3ccccc3)cc2)sc1C(=O)O [CBK045566]	98.1961
COc1cc(CN(C)Cc2cccc3ccccc23)c([N+](=O)[O-])cc1OC [CBK261850]	89.1729
Cc1ccc2c(c1)OC1(CCN(C(=O)c3cc4c(C)nn(C)c4s3)CC1)CC2=O [CBK166037]	105.177
COc1ncccc1CNC(=O)Cn1ccc(=O)[nH]c1=O [CBK305596]	95.9242
CC(C)C(=O)N1CCC(c2nc3ccc(F)cc3cc2N)CC1 [CBK284656]	106.359
O=S(=O)(CCSc1ccc(Cl)cc1)Oc1ccccc1 [CBK261021]	88.8272
O=C1NC2(CCc3ccccc31)CCN(C/C=C/c1cccnc1)C2 (centres unmarked) [CBK284622]	94.8948
O=C(O)CC(Cc1ccc(Br)cc1)C(=O)Nc1ccccc1 (centres unmarked) [CBK262714]	81.8089

Compound	% of control remaining
COC(=O)C(=O)N1CC[C@H]2NC(=O)N(c3ccc(C(C)C)cc3)C(=O)[C@H]21 [CBK289287]	69.9202
Cc1nc(C2CCCN(C(=O)CCn3cccn3)C2)c2sccn12 (centres unmarked) [CBK285234]	90.2453
Cc1cc(C)cc(OCC(=O)Nc2ccc3[nH]c(=O)[nH]c3c2)c1 [CBK269676]	109.424
CCN(CC)CCNC(=O)c1cccc(Nc2cncc(-c3ccc(O)cc3)n2)c1 [CBK122671]	93.7947
O=C(Nc1nc(-c2cccnc2)cs1)c1cccc(N2C(=O)CCC2=O)c1 [CBK287564]	108.611
CCn1ncc2c1CCCC2NC1CCN(CC(F)(F)F)C1=O (centres unmarked) [CBK305206]	36.9336
FC(F)(F)c1cccc(OCCOc2ccccc2)n1 [CBK115835]	102.374
CC(=O)Nc1cccc(C(=O)N2CCC(OCc3ccccn3)CC2)c1 [CBK307009]	70.4708
COc1cccc2cc(C(=O)N3CCN(C4CCN(C)CC4)CC3)oc12 [CBK149086]	103.543
Cc1ccc(C)c(-c2csc(NS(=O)(=O)c3cccc(C(=O)O)c3)n2)c1 [CBK296696]	67.6528
COCCc1noc(CC2CCN(c3ccc(C#N)nc3)CC2)n1 [CBK304094]	11.444
O=c1n(-c2cccc(C(F)(F)F)c2)ccn1S(=O)(=O)c1ccc(N2CCOCC2)nc1 [CBK106590]	80.976
CC(Oc1cccc(Cl)c1)C(=O)Nc1ncccn1 (centres unmarked) [CBK265450]	98.1759
CN(c1cccc(C#N)c1)C1CCN(c2nc3c(cnn3C)c(=O)[nH]2)C1 (centres unmarked) [CBK305462]	75.085
Cc1cc(SCC(=O)Nc2cccc3ccccc23)nc2c(C)cccc12 [CBK268005]	106.835
Cc1cc2c(cc1S(=O)(=O)NCCOc1cccc(C(=O)O)c1)OCC(=O)N2 [CBK299770]	113.287
CCCn1ccnc1CNc1nc(C(C)(C)C)nc2c1cnn2C [CBK306739]	72.1813
CCCCC(=O)NC(Nc1cc(C)ccn1)(C(F)(F)F)C(F)(F)F [CBK009331]	92.6744
C=C(C)Cn1nc(C)c(CN(C)CCN2CCCCC2)c1C [CBK282483]	127.201
CN(C)c1ccc(C(=O)N2CC[C@@H](CC(=O)O)[C@@H](CC3=NCCc4ccccc43)C2)cc1 [CBK289159]	113.752
O=C(c1sc2ccccc2c1Cl)N1CCN(CCN2C(=O)c3cccc4cccc(c34)C2=O)CC1 [CBK262557]	93.8808
CCOC(=O)c1cnn(C2CCCN(Cc3cnnn3C)C2)c1 (centres unmarked) [CBK305122]	84.3938
CN(C)S(=O)(=O)NCCc1ccc(S(N)(=O)=O)cc1 [CBK022388]	67.9017
CN1CCCN(Cc2ccc3c(c2)c(=O)c(C(=O)NCc2ccc(Cl)cc2)cn3C)CC1 [CBK018019]	85.6476
CC(=O)N1CCC(Cn2nc(-c3ccccc3)ccc2=O)CC1 [CBK282405]	66.0554
Cc1cc(C(=O)N2CCC(c3nnc(CN(C)C)n3C)CC2)ccc1F [CBK306748]	69.7336

From paper PMC12040169 (PLOS Biology, 2025)
